Data reported in the supplement of paper PMC10126150.
Values marked as one replicate rest on one cluster of the flow cell; about a third of the high ones do not repeat.

Tested on: ATP
Assay: switch fluorescence ratio, 500 uM ATP over buffer (Cy3 cluster intensity, sum of 5 cycles each) (fold (ratio)); higher = stronger signal-on switching upon ATP binding; sequences stand for … in TCGTCGGCAGCGTCAGATGTGTATAAGAGACAGTTTTTTTTTTTTTTTTTTTTTTTTT…TC
Conditions: aptamer strand: ATP DNA aptamer (quencher-CACCTGGGGGAGTATTGCGGAGGAAGG + anchor), 100 nM annealed; ATP concentration: 500 uM; one replicate
Procedure, shortened: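 Clusters with intensities outside 100-1000 RFU were excluded. The remaining Cy3-labelled switching-strand clusters on a modified Illumina MiSeq flow-cell had been annealed to 100 nM quencher-labelled ATP aptamer and imaged in selection buffer, then after 15 min with 500 uM ATP at 22 °C, for five cycles separated by NaOH stripping and re-annealing. The fluorescence ratio, averaged per switch-domain sequence, is each cluster's summed target-cycle Cy3 intensity over its summed buffer-cycle Cy3 intensity.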
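Also: ATP exposure 15 min at 22 °C before imaging.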

Sequence	switch fluorescence ratio
AGAGGTATAT	0.995
CAATAGCCAC	1.19
TATTCATCCC	0.977
CGGAGCGCTG	1.01
AGATGTGGAG	0.916
AAGGGAGGAG	0.982
GTTAGCTTAT	1.03
TTTAGGAGCT	1.04
TTGTGCAGAT	0.976
CAGAGGTATA	0.989
CAGCAAAAGG	1.04
GAATTTCTAA	0.984
ATGTCATTCG	1.03
CACCGTGATC	3.98
CACTCAATCT	1.07
CGTTCTTGTG	0.959
CCTAAGCAGC	2.53
GGGTTGCCAA	1.03
TGGTACAAGC	0.986
GGGATTTCAA	0.978
GGAATGATAG	1.02
GATAGAATCA	0.974
AGTATGTTCT	0.98

Sequence	switch fluorescence ratio
GCATTATGGA	1.03
CAGTCTTCAC	1.03
GTGTGGCTT	0.957
GCTACCGGAT	0.963
CGAAAGATAT	1
CCTTGCGGCC	1.93
ACCGCTGACT	1.36
CAGTTTTCTC	0.991
CGGGAATCTG	0.994
CAACGACACA	1.41
AACTTGATTG	0.96
GACGGAGGTC	1
TAGATTGGGA	1.02
ATATTTATTC	1.01
CGGCCCGCCG	0.99
AGTATCAGTG	0.979
GCTTTCGTCA	0.993
AATCATTTGT	1
TGTGTCCAGT	0.956
TGTGAAGCGT	0.933
GTTGGCACA	0.987
AAGGGAGTGT	0.992
AGGAAGGCAG	0.956

Sequence	switch fluorescence ratio
GCAAATTCTC	1.16
TTTGTCAGAA	0.994
AAAATGAGTA	0.967
GACGGACCTG	0.998
CGAACGAATG	1.02
GTACCCGGTG	1.78
TGCGCGGCTG	0.97
CGTCAGTCTG	1.02
ACCTACGAAG	1.15
ACCGTTTCG	0.966
GACGACAACA	1.5
TAAGAGCGCG	0.984
ACGGAACTGA	1.13
CGGATGAAT	0.994
TCGTGGCAAC	1.07
ATAGGCGATT	1.02
ATTTCTGATC	0.944
AACACAAGAT	1.06
TATTCCTTC	1.06
GTAATAACA	0.985
GCGCTCCGTT	1.16
TTTGTTTCAG	0.982
GGGCAAGGG	1.06

Sequence	switch fluorescence ratio
GATAGTCCCG	1.04
CTAATTAATG	1.04
GAACGTAGTG	1.04
CCCGGTTGA	1.03
TAGTATTTAA	1.04
AAAAGGATCC	1.06
AGCCCCAATT	0.988
CTAGGTGTTA	1.03
AGGGAATGGA	1.03
AAGTGCATTC	1.03
ATGAAGTGGT	1.02
TGTCTGGATG	0.982
CTAAGCATGA	1.08
CGGCGGGGTC	0.983
TTGATTAGCA	0.961
CCTGGTGTGT	1.03
GGGACTATTG	0.97
AGCTCATCCT	1.02
CTGTCTTACA	0.988
CGCGTTGTAC	1.54
TCGCGGCAGG	1.03
GCGGCGACA	1
ACCAACGTCA	1.32

Sequence	switch fluorescence ratio
ATCCTTGTCA	0.985
CCTTGTTCAG	1.04
GGGCCCTTGA	1.04
AATGTGGACA	1.01
TAGCCGTAGT	1.01
ATGGCTGTTA	1.03
CAGTAACTAG	1.03
AACACGTAGA	1.1
TGCGAGGAAT	1.07
TGCTAATTCC	1.08
CCTTTTCCGT	1.31
CCGGCGTAGG	1.08
TCAATAAGGA	1
GCAATTCTTC	1.69
TACAGTTACG	1.3
ACAGCAGAGA	1.04
GCGCAATTTA	1.15
TCAGTCTAGC	1.01
GTCTCGTG	0.937
TATGGTACCT	1.03
ATGGTTTTTA	0.965
CTCAACGAGG	1
ATTGCTCAC	0.977

Sequence	switch fluorescence ratio
CCGGGAGTTT	1.03
CCTAGTCGG	0.983
GTCAGGGGTT	2.94
AACAAGGGTA	0.958
ACGGAGACAG	1.16
TGGTATAGAG	0.98
GGGCTGTATG	1.01
AGACTCAGGT	1.01
GCGAGCAGGA	0.988
ATGACTGAAA	1.03
GGAATGACGC	1
TAGACCGCGC	1.18
TGACAAGTAC	1.63
AGCCACAGGG	1.1
TCGTCGAC	0.984
TGGCCTGGCC	1.02
GCTTCTAGCG	1.03
AGACTGCGCG	1.04
TTTGGCATT	1.1
CCGCTACAGG	2.49
GGGTTAGCAG	0.997
ATGTAGGC	1.01
GTGAACCTTG	1.03

Sequence	switch fluorescence ratio
GGATCGTCCG	0.93
TTTTAATCCT	1.1
TCGGAGCTCA	1.72
GGTAGCAAGC	3.45
CTCCTCGAAA	1.85
CAATGCCTGG	1.02
ACGGAAAGGT	1
CGATATGGCA	1.06
CTGGGTCAAT	1.29
CGAAATGTGC	1.02
ACAGCTAGGC	1.1
AGGGGAGAGC	0.99
TCGCCTGGCT	1.01
GCATTTGCA	1.02
GGGTATTGTC	0.987
ACGATAACAA	1.22
AGAGGTTACT	0.994
ATGTATTTCT	1.05
GGTTTTAACT	0.985
